{"source": "PubChem BioAssay AID924", "about": "(National Center for Advancing Translational Sciences (NCATS), 2007)", "note": "“And” between values parts separate entries of the source, which are not always exact repeats. Identical values can stand only once. Among all 130,000 compounds or so, about 1,200 (0.92%) were called active. This list was built around the results that the source calls inconclusive (neither active nor inactive); the mix of calls is not that of the screen. Calls come from the whole dose curve; as a rule, active = well fitted cell-killing curve with a large enough effect; inconclusive = small, poorly fitted or top-dose-only effect; inactive = no such curve, though single readings can be large or run the other way. Where the call is inconclusive, the potency comes from a doubtful curve fit. Potency is the fitted concentration of half-maximal effect; tags give direction and shape of the fitted curve.", "data": [{"experiment": "qHTS Screen for Compounds that Selectively Target Cancer Cells with p53 Mutations: Cytotoxicity of p53ts Cells at the Permissive Temperature; note: nearly all actives have a fitted effect of over 55% in size", "settings": "H1299-p53A138V at 32C, ATP luminescence viability, 24 h; activity change, negative = cytotoxicity: at 46.1 µM (top of the series)", "method_in_brief": "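ATP-content luminescence (ATPlite) read-out after 24 h compound exposure at 32C in H1299-p53A138V cells (600/well). Tested up to 46 uM. Normalized to DMSO (0%) and 100 uM tamoxifen (100% killing); Hill-fit AC50.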", "values": [{"smiles": "Cc1ccc(O)c(N=CC2=C(O)c3ccccc3C2=O)c1", "Potency": "inconclusive: 31.6 µM [cytotoxic, single point]"}, {"smiles": "O=C(c1ccco1)N1CCN(S(=O)(=O)c2ccc(S(=O)(=O)NC3CCCC3)cc2)CC1", "activity change, negative = cytotoxicity": "inactive: -1.72%"}, {"smiles": "Fc1ccc([C@H]2CCNCC2COc2ccc3c(c2)OCO3)cc1", "note": "(stereo not given in full)", "activity change, negative = cytotoxicity": "inactive: 0.491%"}, {"smiles": "Cc1cc(N2CCN(S(=O)(=O)c3ccccc3)CC2)c2ccccc2n1", "activity change, negative = cytotoxicity": "inactive: -1.32%"}, {"smiles": "CN1CCN(S(=O)(=O)c2ccc(SCCOc3ccccc3)nc2)CC1", "activity change, negative = cytotoxicity": "inactive: 1.45%"}, {"smiles": "CC(C)Oc1ccc(CNC(=O)c2ccc(CS(=O)Cc3ccccc3Cl)o2)cc1", "note": "(stereo not given)", "Potency": "inconclusive: 31.6 µM [cytotoxic, single point]"}, {"smiles": "O=C(Nc1ccc(NC(=O)C2CC2)nc1)c1ccccn1", "Potency": "active: 12.6 µM"}, {"smiles": "COC(=O)c1ccc(Nc2nc(-c3ccc(C)cc3)nc3ccccc23)cc1", "Potency": "inconclusive: 25.1 µM [cytotoxic, single point]"}, {"smiles": "CN(C)/C=C1\\C(=O)c2ccc(N(C)C)nc2CC1c1ccccc1", "note": "(stereo not given)", "Potency": "inconclusive: 31.6 µM [cytotoxic, single point]"}, {"smiles": "COc1ccc2[nH]c(=O)c(CN(CC3CCCO3)C(=O)Nc3ccc(F)cc3)cc2c1", "note": "(stereo not given)", "Potency": "inconclusive: 31.6 µM [cytotoxic, single point]"}, {"smiles": "Cc1cc(C)c(C(N)=O)c(Nc2cccc3ccccc23)n1", "Potency": "inconclusive: 25.1 µM [cytotoxic, single point]"}, {"smiles": "O=C1C(=O)c2ccccc2C(O)=C1C(C1=C(O)c2ccccc2C(=O)C1=O)c1ccc(Cl)cc1", "Potency": "inconclusive: 5.01 µM [cytotoxic, single point]"}, {"smiles": "CC(CC(O)C1OC1(C)C)C1CCC2(C)C3=CCC4C(C)(C)C(=O)CCC4(C)C3CC[C@@]12C", "note": "(stereo not given in full)", "activity change, negative = cytotoxicity": "inactive: 25%"}, {"smiles": "COc1ccc(-c2ccc(SCC(=O)N3CCOCC3)nn2)cc1", "Potency": "inconclusive: 10 µM [cytotoxic, partial curve]"}, {"smiles": "O=C(NC(Cc1cc(=O)[nH]c2ccccc12)C(=O)O)c1ccc(Cl)cc1", "note": "(stereo not given)", "activity change, negative = cytotoxicity": "inactive: -1.98%"}, {"smiles": "O=C1CC(c2nc3ccccc3n2CCC2CCCCC2)CN1c1ccccc1Cl", "note": "(stereo not given)", "Potency": "inconclusive: 31.6 µM [cytotoxic, single point]"}, {"smiles": "CCCCNc1nc(C)nc2c1nc(-c1ccccc1)n2CCN1CCCCC1", "activity change, negative = cytotoxicity": "inactive: -18.1%"}, {"smiles": "O=C(CN1C(=O)c2ccccc2S1(=O)=O)N1CCc2ccccc21", "Potency": "inconclusive: 2 µM [cytotoxic, full curve]"}, {"smiles": "C=C(C)COc1ccc(-c2[nH]ncc2Oc2ccccc2OC)c(O)c1", "Potency": "inconclusive: 31.6 µM [cytotoxic, single point]"}, {"smiles": "O=c1c2c(nc3c(-c4cccc5ccccc45)c[nH]n13)CCC2", "Potency": "inconclusive: 20 µM [cytotoxic, single point]"}, {"smiles": "CCOC(=O)c1sc(NC(=O)COC(=O)CNC(=O)C2CCCCC2)c(C(=O)OCC)c1C", "Potency": "inconclusive: 0.708 µM [cytotoxic, partial curve]"}, {"smiles": "Cc1cc(C)n2nc3nc(N4CCCCC4)nc(-c4ccco4)c3c2n1", "activity change, negative = cytotoxicity": "inactive: 5.8%"}, {"smiles": "Cc1nn(CCCC(=O)NCc2ccccc2)c(=O)c2c1sc1ccccc12", "Potency": "inconclusive: 11.2 µM [cytotoxic, partial curve]"}, {"smiles": "Cc1cc(N2CCC(C)CC2)nc(SCC(=O)c2ccccc2)n1", "Potency": "inconclusive: 0.0224 µM [cytotoxic, full curve, poor fit]"}, {"smiles": "CC(O)CNC(=O)C1CCN(Cc2ccc(OCc3ccccc3)cc2)CC1", "note": "(stereo not given)", "Potency": "inconclusive: 7.94 µM [cytotoxic, partial curve]"}, {"smiles": "c1ccc2nc(-c3nc4ccccc4o3)ccc2c1", "Potency": "active: 5.01 µM"}, {"smiles": "COc1ccc(/C=C/C(=O)c2ccc[nH]2)c(OC)c1OC", "Potency": "inconclusive: 11.2 µM [cytotoxic, single point]"}, {"smiles": "Nc1c(-c2ccc(Cl)cc2)nnn1-c1ccccc1", "Potency": "inconclusive: 12.6 µM [cytotoxic, partial curve]"}, {"smiles": "CNc1nnc(-c2cccc(N(C)C)c2)s1", "Potency": "inconclusive: 10 µM [cytotoxic, partial curve]"}, {"smiles": "C=C(C#N)C(=O)OCC", "activity change, negative = cytotoxicity": "inactive: -6.37% [at 1.84 µM]"}, {"smiles": "CC1=CC(=C2C(=O)c3ccccc3C2=O)C=C(C)N1Cc1ccco1", "Potency": "inconclusive: 12.6 µM [cytotoxic, partial curve]"}, {"smiles": "CCN(CC)CCn1c(=N)n(CC(O)COc2ccccc2C)c2ccccc21", "note": "(stereo not given)", "Potency": "inconclusive: 10 µM [cytotoxic, partial curve, poor fit]"}, {"smiles": "CCCC(=O)N(C)c1nnc(-c2ccc(OC)cc2)s1", "Potency": "inconclusive: 10 µM [cytotoxic, partial curve]"}, {"smiles": "COc1ccc(-c2nnc(SC(=O)N3c4ccccc4Sc4ccccc43)o2)cc1", "Potency": "inconclusive: 31.6 µM [cytotoxic, single point]"}, {"smiles": "Cc1ccc2nc(/C(C#N)=C/c3ccc(-c4cccc(Cl)c4)o3)[nH]c2c1", "Potency": "inconclusive: 20 µM [cytotoxic, single point]"}, {"smiles": "CN(C)c1ccc(CNc2nc(-c3ccco3)nn2C(=O)c2cccc([N+](=O)[O-])c2)cc1", "Potency": "inconclusive: 10 µM [cytotoxic, partial curve]"}, {"smiles": "O=C(Nc1ccc2c(c1)N(C1CCCC1)C(=O)c1ccccc1S2)c1ccccc1", "Potency": "inconclusive: 5.01 µM [cytotoxic, full curve]"}, {"smiles": "COc1cccc(-c2nc(CS(=O)CC(=O)N3CCN(c4cccc(C(F)(F)F)c4)CC3)c(C)o2)c1", "note": "(stereo not given)", "Potency": "inconclusive: 35.5 µM [cytotoxic, single point]"}, {"smiles": "CCc1ccc(CNC(=O)CSCc2cnn(-c3ccccc3)c2-n2cccc2)cc1", "activity change, negative = cytotoxicity": "inactive: 6.84%"}, {"smiles": "COc1ccc(NC(=O)CCCS(=O)(=O)c2nc(-c3ccc(OC)c(OC)c3)cc(C(F)(F)F)n2)cc1OC", "Potency": "inconclusive: 31.6 µM [cytotoxic, single point]"}, {"smiles": "COc1ccccc1N1CCN(C(=O)CSc2nc(-c3ccc(C(C)C)cc3)no2)CC1", "Potency": "active: 7.94 µM"}, {"smiles": "CCOc1ccc(-c2ccc(CO)o2)cc1N", "Potency": "active: 15.8 µM"}, {"smiles": "CCc1cccc(NC(=O)CCS(=O)(=O)c2ccc(C)cc2)c1", "activity change, negative = cytotoxicity": "inactive: -4.54%"}, {"smiles": "COc1ccc(-c2nc3ccccc3s2)cc1NC(C)=O", "Potency": "inconclusive: 20 µM [cytotoxic, single point]"}, {"smiles": "Cc1ccc(-n2[nH]c(C)c(C=Nc3ccc(C)cn3)c2=O)cc1", "Potency": "active: 12.6 µM"}, {"smiles": "CCOc1ccc2c(c1)sc1nc(C(=O)OC)cc(=O)n12", "activity change, negative = cytotoxicity": "inactive: -6.74%"}, {"smiles": "CC(=O)N(C)c1ccc(NC(=O)c2ccco2)cc1", "Potency": "inconclusive: 10 µM [cytotoxic, partial curve]"}, {"smiles": "O=C(Nc1cccnc1)c1cn(-c2ccccc2)nc1-c1cccs1", "activity change, negative = cytotoxicity": "inactive: -26.9%"}, {"smiles": "CC(C)c1ccc(NC(=O)C(Cc2ccccc2)NS(=O)(=O)c2ccc3c(c2)oc(=O)n3C)cc1", "note": "(stereo not given)", "Potency": "inconclusive: 31.6 µM [cytotoxic, single point]"}, {"smiles": "c1ccc(-c2nc(-c3ccccn3)no2)cc1", "Potency": "active: 5.62 µM"}, {"smiles": "COc1ccc2c(c1)CCc1c(C(=O)NCc3ccco3)noc1-2", "activity change, negative = cytotoxicity": "inactive: -22.5%"}, {"smiles": "COc1ccc(Nc2nc(-c3ccccc3F)nc3ccccc23)cc1OC", "Potency": "inconclusive: 6.31 µM [cytotoxic, partial curve, poor fit]"}, {"smiles": "CCCN(CCC)c1ncnc2c1cnn2-c1ccc(OC)cc1", "Potency": "inconclusive: 12.6 µM [cytotoxic, partial curve]"}, {"smiles": "CN1CCN(C2=Cc3ccccc3Sc3cc(F)c(F)cc32)CC1", "Potency": "inconclusive: 35.5 µM [cytotoxic, single point]"}, {"smiles": "CC(C)c1ccc(/C=C(\\C#N)c2nc(-c3ccc(O)cc3)cs2)cc1", "Potency": "inconclusive: 31.6 µM [cytotoxic, single point]"}, {"smiles": "Cc1ccc2cc3c(N)c(C(=O)N4CCOCC4)sc3nc2c1", "Potency": "inconclusive: 20 µM [cytotoxic, single point]"}, {"smiles": "Cc1cc(C)cc(NC(=O)Cn2c(=O)n(CC(=O)NCCc3ccccc3)c(=O)c3ccccc32)c1", "Potency": "inconclusive: 15.8 µM [cytotoxic, single point]"}, {"smiles": "Cc1ccc(CNC(=O)c2cccc(Nc3nc4ccccc4n4nnnc34)c2)cc1", "Potency": "inconclusive: 3.16 µM [cytotoxic, single point]"}, {"smiles": "Clc1cccc(-n2ncc3c(N4CCCCCC4)ncnc32)c1", "Potency": "inconclusive: 2.51 µM [cytotoxic, full curve, poor fit]"}, {"smiles": "CC(Oc1ccc(Cl)cc1Cl)C(=O)NC1CCSC1=O", "note": "(stereo not given)", "activity change, negative = cytotoxicity": "inactive: 1.35%"}, {"smiles": "CC1=C(C(=O)Nc2cccc(C(F)(F)F)c2)C2(CCCCCC2)OC1=O", "Potency": "inconclusive: 35.5 µM [cytotoxic, single point]"}, {"smiles": "Cc1ccccc1-c1ccc2ncnc(N3CCNCC3)c2c1", "activity change, negative = cytotoxicity": "inactive: 20.6%"}, {"smiles": "COc1ccc2c3c(ccc2c1)N[C@H](C(=O)O)CC3", "Potency": "inconclusive: 3.16 µM [cytotoxic, single point]"}, {"smiles": "CCOc1ccc(CCNC(=O)c2cc(Nc3ccc(C)cc3C)nc3ccccc23)cc1OCC", "activity change, negative = cytotoxicity": "inactive: 9.84%"}, {"smiles": "CCOC(=O)/C=C/S(=O)(=O)c1ccc(NC(C)=O)cc1", "Potency": "inconclusive: 31.6 µM [cytotoxic, single point]"}, {"smiles": "CCCCc1ccc(-c2ccc(Br)cc2)nc1", "activity change, negative = cytotoxicity": "inactive: 4.41%"}, {"smiles": "Cc1ccc(S(=O)(=O)n2nc(-c3ccccc3)nc2NCc2ccccc2Cl)cc1", "activity change, negative = cytotoxicity": "inactive: 6.58%"}, {"smiles": "O=C(/C=C/Nc1ccc(F)c(Cl)c1)c1ccco1", "Potency": "inconclusive: 15.8 µM [cytotoxic, single point]"}, {"smiles": "N#Cc1cccc(NC(=O)N2CCCC3(CCN(C(=O)c4cnccn4)CC3)C2)c1", "activity change, negative = cytotoxicity": "inactive: -7.73%"}, {"smiles": "O=C(Nc1ccc([N+](=O)[O-])cc1Cl)c1cc(Cl)ccc1O", "Potency": "inconclusive: 3.98 µM [cytotoxic, full curve] and inconclusive: 1.26 µM [cytotoxic, partial curve] and inconclusive: 5.01 µM [cytotoxic, partial curve]"}]}]}
